Experimental data from US7271245B2, “Methods and compositions for inhibition of metastasis” (The Scripps Research Institute, priority 2004, dated 2007).

Legend:
alpha IIb beta 3 = molecular target: T1, alpha IIb beta 3 (Homo sapiens, UniProt P05106+P08514); test: Flow cytometry, binding to other RGD-recognizing integrins
T1 construct: M21-LIIb cells (αIIbβ3, no αv integrin); expressed in transfected cells; host or cells: M21-LIIb human melanoma cells
Experimental: (§1) Flow cytometry. scFv binding to human tumor cells was analyzed by flow cytometry, initially with cloned scFv phage and then with purified scFv protein. Per sample, 2×10^5 tumor cells were blocked with goat serum and incubated either with scFv phage (2-5×10^10) (1 h at RT) followed by mouse anti-M13 mAb (Serotec) (30 min on ice) and goat FITC-anti mouse (Pierce) (30 min on ice), or with purified scFv (1.25 to 40 μg/ml, routinely 10 to 15 μg/ml) (45 min on ice), followed by mouse anti-FLAG mAb M2 (Sigma) (30 min on ice) and goat FITC-anti mouse. Binding/washing buffer was TBS with or without divalent cations (1 mM Ca^2+, 1 mM Mg^2+, 0.2 mM Mn^2+). Alternatively, tumor cells were washed in 10 ml of plasma (prepared freshly from human blood anticoagulated with 50 nM D-Phe-D-Pro-D-arginyl chloromethyl ketone, PPACK, Felding-Habermann et al., J. Biol. Chem. 271: 5892-5900, 1996), resuspended in plasma and then incubated sequentially, without washing, with purified scFv (45 min on ice), followed by anti-FLAG M2 (30 min on ice) and FITC-anti mouse (30 min on ice). All samples were counter stained with propidium iodide (PI) and analyzed on a Becton-Dickinson FACScan, with live gate set to exclude PI positive cells.
(§2) To generate therapeutic reagents that specifically react with activated αvβ3, a phage display library of single chain antibody fragments (scFv) was exploited. This library was derived from cancer patient blood lymphocyte cDNA libraries and allowed us to test the hypothesis that the expressed immune repertoire contains antibodies that recognize integrin αvβ3, and distinguish between its activated and non-activated forms. Mao et al., Proc. Natl. Acad. Sci. U.S.A 96: 6953-6958, 1999. A subtractive panning approach was designed based on variants of MDA-MB 435 human breast cancer cells. […] Apparently, these cells are selected during metastasis, as variant cells isolated from lung and bone metastases in immune deficient mice express constitutively activated αvβ3. To establish a cell population that uniformly expresses non-activated αvβ3, MDA-MB 435 parental cells were cloned by limiting dilution, and clones tested for αvβ3 functionality. […] A cell line, MDA-MB 435 Lung-Lung, was established which expressed αvβ3 in a constitutively activated form. This variant stems from a lung metastase of an immune deficient mouse whose mammary fat pad had been injected with parental MDA-MB 435 cells. […] After 5 rounds of subtracting the phage library on Parent Combo cells and panning on Lung-Lung cells, scFv clones were analyzed by flow cytometry for their ability to bind integrin αvβ3 on human tumor cells, and to distinguish between the activated and non-activated forms of the receptor (FIG. 1). […]

integrin αvβ5 = molecular target: T2, integrin αvβ5 (Homo sapiens, UniProt P06756+P18084); test: as above
T2 construct: UCLA-P3 lung adenocarcinoma cells (αv integrins, but no αvβ3); endogenous in cells; host or cells: UCLA-P3 human lung adenocarcinoma cells
T2 sequence (P06756 31-889 limits assumed): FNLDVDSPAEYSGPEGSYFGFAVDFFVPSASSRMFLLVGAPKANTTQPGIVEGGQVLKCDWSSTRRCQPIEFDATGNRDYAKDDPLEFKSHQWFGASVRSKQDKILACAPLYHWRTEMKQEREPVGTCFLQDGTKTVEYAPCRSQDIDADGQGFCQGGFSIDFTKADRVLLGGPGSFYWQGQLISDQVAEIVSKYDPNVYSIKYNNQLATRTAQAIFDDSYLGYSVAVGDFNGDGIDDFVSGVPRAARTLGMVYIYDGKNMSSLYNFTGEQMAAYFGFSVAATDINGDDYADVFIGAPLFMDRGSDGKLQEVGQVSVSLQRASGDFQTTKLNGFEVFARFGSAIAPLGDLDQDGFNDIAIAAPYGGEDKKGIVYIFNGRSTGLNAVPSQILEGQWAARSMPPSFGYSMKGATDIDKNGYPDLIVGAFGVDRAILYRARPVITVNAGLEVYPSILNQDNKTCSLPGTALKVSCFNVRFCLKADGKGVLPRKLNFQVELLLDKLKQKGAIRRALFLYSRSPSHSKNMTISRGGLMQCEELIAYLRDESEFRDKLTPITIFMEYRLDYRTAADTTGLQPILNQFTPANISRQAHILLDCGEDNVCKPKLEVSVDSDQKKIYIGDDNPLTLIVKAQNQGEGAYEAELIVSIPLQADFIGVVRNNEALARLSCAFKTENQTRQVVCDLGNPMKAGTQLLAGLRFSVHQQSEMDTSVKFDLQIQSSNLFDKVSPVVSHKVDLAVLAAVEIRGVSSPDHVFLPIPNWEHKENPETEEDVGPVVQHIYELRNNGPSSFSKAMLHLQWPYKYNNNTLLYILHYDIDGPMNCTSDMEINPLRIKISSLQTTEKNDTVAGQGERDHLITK
T2 sequence (P06756 891-1048 partner limits assumed): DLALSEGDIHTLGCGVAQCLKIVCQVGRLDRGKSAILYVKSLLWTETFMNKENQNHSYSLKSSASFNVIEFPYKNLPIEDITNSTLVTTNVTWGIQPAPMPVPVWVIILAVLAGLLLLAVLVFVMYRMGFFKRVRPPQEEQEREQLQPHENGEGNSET
T2 sequence (P18084 24-799): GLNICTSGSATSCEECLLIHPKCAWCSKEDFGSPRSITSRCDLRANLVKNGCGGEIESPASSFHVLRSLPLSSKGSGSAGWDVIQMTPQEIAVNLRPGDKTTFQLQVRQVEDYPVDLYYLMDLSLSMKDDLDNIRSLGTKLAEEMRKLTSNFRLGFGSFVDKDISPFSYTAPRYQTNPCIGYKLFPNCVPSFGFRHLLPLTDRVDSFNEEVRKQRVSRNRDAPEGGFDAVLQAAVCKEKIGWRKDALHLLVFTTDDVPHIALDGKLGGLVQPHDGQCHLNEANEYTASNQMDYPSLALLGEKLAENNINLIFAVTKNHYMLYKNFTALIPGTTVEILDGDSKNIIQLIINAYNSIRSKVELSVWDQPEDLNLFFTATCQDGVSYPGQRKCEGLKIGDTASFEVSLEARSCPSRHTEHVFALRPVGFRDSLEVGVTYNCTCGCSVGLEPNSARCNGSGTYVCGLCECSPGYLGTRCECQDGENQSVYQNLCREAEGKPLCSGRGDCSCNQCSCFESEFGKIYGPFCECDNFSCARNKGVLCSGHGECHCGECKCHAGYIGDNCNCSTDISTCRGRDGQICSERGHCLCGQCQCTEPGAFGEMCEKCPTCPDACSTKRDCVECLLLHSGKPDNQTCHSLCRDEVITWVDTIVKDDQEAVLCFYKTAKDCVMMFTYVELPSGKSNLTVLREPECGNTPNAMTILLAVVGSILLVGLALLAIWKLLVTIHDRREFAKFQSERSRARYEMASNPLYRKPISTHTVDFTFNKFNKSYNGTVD
Experimental: as §1, §2

α5β1 = molecular target: T3, α5β1 (Homo sapiens, UniProt P05556+P08648); test: as above
T3 construct: endogenous in cells
T3 sequence (P08648 42-894 limits assumed): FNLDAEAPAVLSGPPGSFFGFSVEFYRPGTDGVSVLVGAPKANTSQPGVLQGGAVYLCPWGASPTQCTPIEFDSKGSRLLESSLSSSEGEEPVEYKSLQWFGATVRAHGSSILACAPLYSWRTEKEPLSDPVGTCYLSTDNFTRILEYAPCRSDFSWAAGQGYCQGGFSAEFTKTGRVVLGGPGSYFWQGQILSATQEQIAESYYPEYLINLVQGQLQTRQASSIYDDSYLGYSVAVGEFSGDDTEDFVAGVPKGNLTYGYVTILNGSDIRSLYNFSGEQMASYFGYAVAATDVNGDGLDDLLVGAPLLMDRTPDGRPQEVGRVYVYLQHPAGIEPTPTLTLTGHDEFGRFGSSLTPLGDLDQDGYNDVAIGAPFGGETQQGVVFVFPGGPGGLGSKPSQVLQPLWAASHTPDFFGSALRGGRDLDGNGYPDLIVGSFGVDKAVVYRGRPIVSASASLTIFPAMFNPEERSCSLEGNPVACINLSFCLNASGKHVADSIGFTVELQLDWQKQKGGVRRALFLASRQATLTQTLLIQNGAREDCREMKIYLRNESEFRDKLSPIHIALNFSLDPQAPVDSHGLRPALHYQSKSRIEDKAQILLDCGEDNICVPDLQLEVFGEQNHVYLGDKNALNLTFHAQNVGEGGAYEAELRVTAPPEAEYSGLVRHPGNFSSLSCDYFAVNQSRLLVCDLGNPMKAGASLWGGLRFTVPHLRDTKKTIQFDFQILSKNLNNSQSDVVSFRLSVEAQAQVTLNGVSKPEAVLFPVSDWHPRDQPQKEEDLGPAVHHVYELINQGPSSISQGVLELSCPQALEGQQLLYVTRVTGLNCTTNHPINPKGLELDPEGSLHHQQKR
T3 sequence (P08648 895-1049 partner limits assumed): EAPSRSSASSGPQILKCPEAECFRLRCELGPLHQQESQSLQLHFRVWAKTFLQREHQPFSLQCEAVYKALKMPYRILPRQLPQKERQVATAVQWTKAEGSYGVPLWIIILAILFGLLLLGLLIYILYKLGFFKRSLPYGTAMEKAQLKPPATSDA
T3 sequence (P05556 21-798): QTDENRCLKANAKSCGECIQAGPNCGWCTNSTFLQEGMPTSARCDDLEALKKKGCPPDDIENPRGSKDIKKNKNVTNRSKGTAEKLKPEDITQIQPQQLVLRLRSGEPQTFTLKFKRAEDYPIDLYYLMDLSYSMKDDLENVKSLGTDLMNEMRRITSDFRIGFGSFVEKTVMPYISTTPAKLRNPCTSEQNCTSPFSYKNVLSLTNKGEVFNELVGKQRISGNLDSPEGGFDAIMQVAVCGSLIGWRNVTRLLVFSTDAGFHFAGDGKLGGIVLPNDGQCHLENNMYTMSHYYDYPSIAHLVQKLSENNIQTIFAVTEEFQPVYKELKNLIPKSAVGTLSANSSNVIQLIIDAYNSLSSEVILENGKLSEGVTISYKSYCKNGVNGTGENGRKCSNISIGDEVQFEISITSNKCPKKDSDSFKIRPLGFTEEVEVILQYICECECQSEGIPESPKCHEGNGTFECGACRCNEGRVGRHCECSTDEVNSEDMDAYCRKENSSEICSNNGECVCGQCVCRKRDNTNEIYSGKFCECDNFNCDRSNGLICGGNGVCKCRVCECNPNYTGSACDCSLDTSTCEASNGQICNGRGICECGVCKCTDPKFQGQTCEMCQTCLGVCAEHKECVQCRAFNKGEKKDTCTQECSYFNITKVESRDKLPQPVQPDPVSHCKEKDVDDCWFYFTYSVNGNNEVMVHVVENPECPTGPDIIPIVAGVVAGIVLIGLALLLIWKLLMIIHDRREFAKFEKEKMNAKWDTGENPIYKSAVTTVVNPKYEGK
Experimental: as §1, §2

αvβ1 = molecular target: T4, αvβ1 (Homo sapiens, UniProt P05556+P06756); test: as above
T4 construct: UCLA-P3 lung adenocarcinoma cells (αv integrins, but no αvβ3); endogenous in cells; host or cells: UCLA-P3 human lung adenocarcinoma cells
T4 sequence (P06756 31-889 limits assumed): as the sequence (P06756 31-889 limits assumed) above
T4 sequence (P06756 891-1048 partner limits assumed): as the sequence (P06756 891-1048 partner limits assumed) above
T4 sequence (P05556 21-798): as the sequence (P05556 21-798) above
Experimental: as §1, §2

[1] = system: Integrin αIIβ3 mediated adhesive platelet functions; test: Platelet adhesion and thrombus formation during blood perfusion; type: cell-based, human; conditions: 3 μM scFv
Experimental: Tumor cell arrest during bloodflow. Breast cancer cell arrest during blood flow and interaction with platelets was measured as described. Felding-Habermann, et al., Proc. Natl. Acad. Sci. U.S.A 98: 1853-1858, 2001. Felding-Habermann et al., J. Biol. Chem. 271: 5892-5900, 1996. Briefly, tumor cells were suspended in human blood anticoagulated with 50 nM PPACK and perfused over a collagen I matrix at a venous wall shear rate of 50 s^−1, 2 dynes/cm^2. Adhesive events and cell interactions were visualized and recorded by fluorescence video microscopy and quantified by image acquisition at 30 predefined positions followed by computerized image analysis (MetaMorph, Universal Imaging). Tumor cells were stained with hydroethidine (red fluorescence) (20 μg/ml, 30 min, 37° C.), washed, and mixed with blood containing 10 μM mepacrine (green fluorescence). Blood cells, tumor cells, and platelets acquired green fluorescence and were visualized at 488/515 nm (excitation/emission). Tumor cells were identified by their unique red fluorescence at 543/590 nm. To test inhibition, tumor cells were incubated with 3 μM scFv for 5 min at 37° C., then mixed into blood, scFv added to 3 μM final concentration and perfused immediately.
In the circulation, metastatic tumor cells are intensely exposed to a cancer patient's immune surveillance, encountering potential function blocking antibodies like Bc-12 and Bc-15. […]

B1: Bc-15: patient derived human scFv antibody against activated αvβ3 with RGD motif in CDR-H3; cDNA ATCC PTA-6304 (protein)
scFv: MAQVQLVQSGAEVKEPGSSVKVSCKASGGTFSSYAIYWVRQAPGQGLEWMGWINPDSGDTNSAQQFQGRVTMTRDTSISTAYMELSRLRSDDTAMYYCARPPRGDGPDYWGQGTLVTVSSGGGGGS[letters of about 100 residues not shown]RGLGGLVDYKDDDDK
Alpha IIb beta 3
  binding to alpha IIb beta 3: do not bind
Integrin αvβ5
  binding to integrin αvβ5: do not bind
α5β1
  binding to α5β1: do not bind
αvβ1
  binding to αvβ1: do not bind
[1]
  adhesive platelet functions: not affected
